# Test results published in PubChem BioAssay (NCATS).
# “And” between values parts separate entries of the source, which are not always exact repeats. Equal entries are not always repeated. This list was built around the results that the source calls inconclusive (neither active nor inactive); the mix of calls is not that of the screen. No potency is given beside an inconclusive call; the fits are too rough. The source made the active and inactive calls. Calls come from the whole dose curve; as a rule, active = well fitted cell-killing curve with a large enough effect; inconclusive = small, poorly fitted or top-dose-only effect, or effect the other way; inactive = flat fitted curve, though single readings scatter.
# Test: qHTS assay for cell viability of HEK293 cells (AID 743288); note: nearly all actives have a fitted effect of over 50% in size
# Conditions: ATP luminescence (CellTiter-Glo), 18 h; max response: hits give low values
# Text: National Center for Advancing Translational Sciences [NCATS]
# NIH Chemical Genomics Center [NCGC]
# U.S. Environmental Protection Agency [EPA]
# National Institutes of Environmental Health Sciences [NIEHS]
# National Toxicology Program [NTP]
# U.S. Food and Drug Administration [FDA]
# The CellTiter-Glo Luminescent Cell Viability Assay (Promega, Madison, WI) is a homogeneous method to determine the number of viable cells in culture based on quantitation of the ATP present, which signals the presence of metabolically active cells. This cell viability assay was used to screen environmental chemicals in the Hek293 cell line.
# Tox21 Assay Protocol Summary:
# Cell viability after compound treatment was measured using a luciferase-coupled ATP quantitation assay (CellTiter-Glo viability assay, Promega, Madison, WI) in parental HEK293 cells. Total intracellular ATP content corresponds to the number of metabolically competent cells after compound treatment. The cells were dispensed at 2,000 cells/5 uL/well in 1,536-well white/solid bottom assay plates using a Flying Reagent Dispenser (Aurora Discovery, San Diego, CA). The cells were incubated a minimum of 5 h at 37 C, followed by the addition of 23 nL of compounds dissolved in DMSO, positive controls or DMSO only using a pintool work station (Kalypsys, San Diego, CA). The assay plates were incubated for 18 h at 37 C, followed by the addition of 5 uL/well of CellTiter-Glo reagent. After 30 min incubation at room temperature, the luminescence intensity of the plates was measured using a ViewLux plate reader (PerkinElmer, Shelton, CT).
# % is set by controls: 0 for no effect and ±100 for the full control effect; potency is the fitted concentration of half-maximal effect; tags give direction and shape of the fitted curve.
SMILES,Potency,max response
Fc1ccc(Oc2ccnc3cc(Cl)cc(Cl)c23)cc1,"inconclusive [cytotoxic, partial curve, poor fit]",
CCOP(=O)(O)C(N)=O,,inactive: -8.79%
CCOCn1c(-c2ccc(Cl)cc2)c(C#N)c(Br)c1C(F)(F)F,active: 7.94 µM,
OC[P+](CO)(CO)CO,"inconclusive [cytotoxic, partial curve, poor fit]",
O=[N+]([O-])c1ccc(Cl)c([N+](=O)[O-])c1,active: 50.1 µM,
CCCCNC(=O)OCC#CI,"inconclusive [cytotoxic, partial curve, poor fit]",
N#CC(Br)(Br)C(N)=O,"inconclusive [cytotoxic, single point]",
C1CC[CH]([Sn]([CH]2CCCCC2)[CH]2CCCCC2)CC1,active: 31.6 µM,
CC(C)(C)c1ccc(CSc2cnn(C(C)(C)C)c(=O)c2Cl)cc1,"inconclusive [cytotoxic, partial curve, poor fit]",
CC(C)(C)OOC(C)(C)C,,inactive: 1.9%
COC(C)(C)CCC[C@H](C)C/C=C/C(C)=C/C(=O)OC(C)C,,inactive: -5.99%
COP(=O)(OC)OC(Br)C(Cl)(Cl)Br (stereo not given),"inconclusive [cytotoxic, partial curve, poor fit]",
O=[N+]([O-])c1ccccc1-c1ccccc1,,inactive: 0.829%
C[Si](Cn1cncn1)(c1ccc(F)cc1)c1ccc(F)cc1,"inconclusive [cytotoxic, partial curve, poor fit]",
N#CCBr,,inactive: -4.55%
CCOP(=S)(OCC)SCn1nnc2ccccc2c1=O,"inconclusive [cytotoxic, single point]",
ClC1=C(Cl)[C@]2(Cl)[C@H]3[C@H]([C@@H]4C=C[C@H]3C4)[C@]1(Cl)C2(Cl)Cl,"inconclusive [cytotoxic, single point]",
CC1(C)CN=C(NN=C(/C=C/c2ccc(C(F)(F)F)cc2)/C=C/c2ccc(C(F)(F)F)cc2)NC1,active: 44.7 µM,
O=[N+]([O-])c1cc(C(F)(F)F)c(Cl)c([N+](=O)[O-])c1Nc1ncc(C(F)(F)F)cc1Cl,active: 35.5 µM,
Cc1ccc(O)c(C)c1,,inactive: -1.16% and inactive: -6.96% and inactive: -11.5%

SMILES,Potency,max response
CCOP(=S)(OCC)SCSC(C)(C)C,,inactive: -9.58% and inactive: -1.13%
O=C/C(Cl)=C(/Cl)C(=O)O,"inconclusive [cytotoxic, single point]",
CCNC(=O)NC(=O)/C(C#N)=N/OC,,inactive: -16.3%
CCCCC(C#N)(Cn1cncn1)c1ccc(Cl)cc1 (stereo not given),,inactive: -11.8% and inactive: -12.8%
CS/C(C)=N/OC(=O)N(C)SN(C)C(=O)O/N=C(\C)SC,,inactive: -6.07%
O=P(OCC(Br)CBr)(OCC(Br)CBr)OCC(Br)CBr (stereo not given),"inconclusive [cytotoxic, partial curve, poor fit]",
CCC[CH2][Sn]([CH2]CCC)([O]C(C)=O)[O]C(C)=O,"inconclusive [cytotoxic, partial curve, poor fit]",
CC1(C)C(C(=O)OC(C#N)c2cccc(Oc3ccccc3)c2)C1(C)C (stereo not given),,inactive: -11.3%
CCOC(=O)COc1cc(-c2nn(C)c(OC(F)F)c2Cl)c(F)cc1Cl,,inactive: -5.44%
O=C(Nc1ccccc1)Nc1cnns1,,inactive: -16.6%
CNC(=O)Oc1cc(C)c(SC)c(C)c1,"inconclusive [cytotoxic, partial curve, poor fit]",
N#Cc1c(Cl)cccc1Cl,,inactive: 0.0704%
CCOP(=S)(OCC)SCCSCC,,inactive: -9.57% and inactive: -7.92%
CN(c1c(Br)cc(Br)cc1Br)c1c([N+](=O)[O-])cc([N+](=O)[O-])cc1C(F)(F)F,active: 39.8 µM,
COC(=O)N(OC)c1ccccc1COc1ccn(-c2ccc(Cl)cc2)n1,"inconclusive [cytotoxic, partial curve, poor fit]",
CCC(C)c1cc([N+](=O)[O-])cc([N+](=O)[O-])c1O (stereo not given),"inconclusive [cytotoxic, partial curve]",
CCC[CH2][Sn]([CH2]CCC)[CH2]CCC,active: 28.2 µM,
O=C1c2ccccc2C(=O)N1SC(Cl)(Cl)Cl,"inconclusive [cytotoxic, full curve, poor fit]",
COC[C@H](C)N(C(=O)CCl)c1c(C)csc1C,,inactive: -14.5%
ClC(Cl)(Cl)c1ccccc1,,inactive: -4.96% and inactive: -3.96%
